# Measurements published in the supplement of paper PMC9446081.
# Out of some 39,000 compounds screened, about 220 (0.56%) showed activity. The list shows a part of the results.
# Tested on: Escherichia coli K-12 BW25113
# Assay: relative growth (OD600 normalised to plate interquartile mean) (fraction); higher = less growth inhibition, active = 0.2 or less
# Details: 50 µM; LB; incubation time: overnight (16-24 h)
# 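Further: static incubation at 37 °C against the wild-type strain, values averaged over two biological replicates.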
row,Structure (SMILES),relative growth
1,C[C@@H]1CCCCO[C@H](CN(C)C(=O)Nc2ccccc2)[C@@H](C)CN([C@H](C)CO)C(=O)c2cc(NC(=O)Nc3ccc4c(c3)OCO4)ccc2O1,inactive: 1.01
2,COc1ccc(NC(=O)Nc2ccc3c(c2)C(=O)N([C@@H](C)CO)C[C@H](C)[C@@H](CN(C)C(=O)Nc2cccc4ccccc24)O3)cc1,inactive: 1
3,COc1ccc(S(=O)(=O)N(C)C[C@@H]2Oc3ncc(-c4cccc(F)c4)cc3C(=O)N([C@H](C)CO)C[C@@H]2C)cc1,inactive: 1.01
4,CCCNC(=O)Nc1ccc2c(c1)OC[C@@H](C)N(Cc1ccc(-c3ccccn3)cc1)C[C@@H](C)[C@H](OC)CN(C)C2=O,inactive: 1.03
5,C=CCn1c(=O)c2cnc(Nc3ccc(N4CCN(C)CC4)cc3)nc2n1-c1cccc(C(C)(C)O)n1,inactive: 0.979
6,CC(C)Cn1c(=O)[nH]c2c1c(=O)n(C)c(=O)n2C,inactive: 0.94
7,O=C(C[C@H]1CC[C@@H]2[C@H](COC[C@@H](O)CN2C(=O)c2ccccc2F)O1)N1CCN(c2ccccc2)CC1,inactive: 1.01
8,C[C@@H]1CN([C@H](C)CO)C(=O)c2c(c3ccccc3n2C)-c2ccccc2CO[C@H]1CN(C)Cc1cccc(C(=O)O)c1,inactive: 0.994
9,COCCCNC(=O)[C@@]1(C)c2ccccc2C(=O)N(Cc2cc(F)cc(C(F)(F)F)c2)[C@H]1c1ccc(CO)cc1,inactive: 0.986
10,C[C@@H]1CN([C@H](C)CO)C(=O)Cc2cc(NC(=O)Nc3ccc(F)cc3)ccc2O[C@H]1CN(C)Cc1ccc(C(=O)Nc2ccccc2N)cc1,inactive: 1.03
11,COc1ccc(NC(=O)Nc2ccc3c(c2)CC(=O)N([C@H](C)CO)C[C@H](C)[C@H](CN(C)Cc2ccc(C(=O)Nc4ccccc4N)cc2)O3)cc1,inactive: 1.01
12,COc1cccc(C#Cc2cnc3c(c2)C(=O)N([C@H](C)CO)C[C@H](C)[C@@H](CN(C)C(=O)C2CCOCC2)O3)c1,inactive: 0.944
13,O=C(C[C@@H]1C[C@H]2c3cc(NC(=O)NC4CCCC4)ccc3O[C@H]2[C@@H](CO)O1)NCc1ccc(-c2ccccc2)cc1,inactive: 1
14,Cc1cc(C(=O)Nc2cccc3c2O[C@H](CN(C)C(=O)Nc2c(C)noc2C)[C@H](C)CN([C@@H](C)CO)C3=O)n(C)n1,inactive: 1.02
15,Cn1ncc2c1CCCC2=O,inactive: 0.985
16,O=C(Nc1cccc2ccccc12)c1ccc(C(F)(F)F)cc1,inactive: 0.975
17,CCCC#Cc1ccc2c(c1)O[C@H](CN(C)S(=O)(=O)c1cccc(F)c1)[C@@H](C)CN([C@H](C)CO)S2(=O)=O,inactive: 1.03
18,C[C@@H]1CN([C@H](C)CO)C(=O)c2cc(NC(=O)CCCN(C)C)ccc2O[C@H]1CN(C)C(=O)NC1CCCCC1,inactive: 0.99
19,C[C@H](CO)N1C[C@H](C)[C@@H](CN(C)C(=O)Nc2ccc3c(c2)OCO3)Oc2ccc(NS(C)(=O)=O)cc2C1=O,inactive: 0.979
20,C[C@H](CO)N1C[C@H](C)[C@@H](CN(C)Cc2ccc(C(=O)O)cc2)Oc2ccc(NC(=O)CCN3CCOCC3)cc2C1=O,inactive: 0.998

row,Structure (SMILES),relative growth
1,[Fe+3].CC/1=C(CCC(=O)O)/C/2=C/c3[nH]c(c(c3CCC(=O)O)C)/C=C/3\N=C(/C=C/4\N=C(\C=C1/N2)C(=C4C)C=C)C(=C3C)C=C,inactive: 0.828
2,Cc1noc(C)c1S(=O)(=O)Nc1ccc2c(c1)C(=O)N([C@H](C)CO)C[C@H](C)[C@@H](CN(C)Cc1ccc3c(c1)OCO3)O2,inactive: 0.989
3,C[C@H]1CN([C@@H](C)CO)C(=O)c2cc(NC(=O)CCCN(C)C)ccc2O[C@H]1CN(C)Cc1ccccc1,inactive: 1
4,Cc1c(N)cncc1C(=O)O,inactive: 0.993
5,C[C@H](CO)N1C[C@H](C)[C@H](CN(C)CC2CCCCC2)OCCCC[C@H](C)Oc2ccc(NC(=O)Nc3ccc(F)cc3)cc2C1=O,inactive: 1.01
6,C[C@@H](O)CO,inactive: 0.996
7,C[C@@H]1CN([C@H](C)CO)S(=O)(=O)c2ccc(C#CC3CC3)cc2O[C@H]1CN(C)C(=O)Cc1ccncc1,inactive: 1.03
8,Nc1cncc(Cl)n1,inactive: 0.977
9,C[C@@H]1CN([C@H](C)CO)C(=O)Cc2cc(NS(C)(=O)=O)ccc2O[C@H]1CN(C)Cc1ccc(C(=O)Nc2ccccc2N)cc1,inactive: 1
10,CC(C)NC(=O)N(C)C[C@H]1Oc2ccc(NS(=O)(=O)c3ccc(F)cc3)cc2C(=O)N([C@H](C)CO)C[C@@H]1C,inactive: 1
11,COc1cccc(S(=O)(=O)N(C)C[C@@H]2OCc3cn(nn3)CCCC(=O)N([C@@H](C)CO)C[C@H]2C)c1,inactive: 0.976
12,C[C@H]1CN([C@@H](C)CO)C(=O)Cc2cc(NS(=O)(=O)c3cn(C)cn3)ccc2O[C@@H]1CN(C)S(=O)(=O)c1cn(C)cn1,inactive: 1
13,Cc1ccc(S(=O)(=O)Nc2ccc3c(c2)C(=O)N([C@@H](C)CO)C[C@H](C)[C@@H](CN(C)C(=O)Cc2ccccc2)OCCCC[C@H](C)O3)cc1,inactive: 1.02
14,C[C@@H]1CCCCO[C@@H](CN(C)C(=O)Nc2ccccc2)[C@@H](C)CN([C@H](C)CO)C(=O)c2cc(NC(=O)NC3CCCCC3)ccc2O1,inactive: 0.973
15,COc1ccc(-c2c(C)oc3ccc(Cl)cc23)cc1,inactive: 0.992
16,COc1ccc(S(=O)(=O)N(C)C[C@H]2OCCCC[C@H](C)Oc3ccc(NC(=O)NC4CCCCC4)cc3C(=O)N([C@H](C)CO)C[C@H]2C)cc1,inactive: 1.06
17,C[C@@H]1CN([C@H](C)CO)C(=O)Cc2cc(NS(=O)(=O)c3cccs3)ccc2O[C@@H]1CN(C)Cc1ccc(-c2ccccc2)cc1,inactive: 0.988
18,N[C@H](C(=O)O)[C@@H](OCc1ccccc1)C(=O)O,inactive: 1
19,C[C@@H]1CN([C@H](C)CO)C(=O)c2cc(NC(=O)Nc3cccc4ccccc34)ccc2O[C@@H]1CN(C)Cc1ccc(-c2ccccc2)cc1,inactive: 1
20,COCCNC(=O)C[C@@H]1CC[C@H]2[C@@H](COC[C@H](O)CN2C(=O)Nc2ccc3c(c2)OCO3)O1,inactive: 1.01
